In PubChem BioAssay (NCATS):
Inconclusive means that the source gave no clear call. Such entries were picked first, then a sample of the others. For part of these data: No potency is given beside an inconclusive call; the fits are too rough. The source made the active and inactive calls. Calls follow the shape of the dose curve; as a rule, active = well fitted curve in the direction sought with a large enough effect; inconclusive = small, poorly fitted or top-dose-only effect, or another doubt; inactive = no such curve, though single readings can be large; an effect the other way counts as inactive or inconclusive.

Experiments:
[1] = test system: Nanoluciferase (engineered Oplophorus gracilirostris luciferase); assay: Primary Nanoluciferase (NLuc) qHTS assay for identification of artifact compounds. (AID 1845222);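 also: 0% = DMSO and -100% = no enzyme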
How it was run: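 Compounds are pinned into diluted (1:55) conditioned medium of NLuc-expressing S16 cells and held 15 min at room temperature protected from light. Nano-Glo substrate follows, and luminescence is read 5 min later.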

[2] = qHTS of pediatric cancer cell lines to identify multiple opportunities for drug repurposing: Primary screen for RD cells (AID 1347104); conditions: RD rhabdomyosarcoma viability, CellTiter-Glo luminescence, 48 h; activity change, negative = cytotoxic: at 46 µM (top of the series); also: nearly all actives have a fitted effect of over 55% in size; also: potency is read from the fitted curve at half-maximal effect;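 as to activity change, negative = cytotoxic: plate controls were DMSO for no effect and bortezomib for full effect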
How it was run: (§1)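 Readout: CellTiter-Glo luminescence, 48 h treatment. Controls DMSO (neutral) and bortezomib 2.3 µM final (positive). Potency and efficacy taken from primary-screen concentration-response curves.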

[3] = NS1 protein of Zika virus - qHTS assay to identify small molecule inhibitors in human HEK 293 cells (AID 1347053); also: potency is read from the fitted curve at half-maximal effect; nearly all actives have a fitted effect of over 55% in size
How it was run: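 HEK 293; 20 h pre-culture, 37 C/5% CO2; cpd 1 h pre-infection; ZIKV MR766, MOI = 0.5, 24 h, 37 C; TR-FRET NS1 readout (two anti-NS1 Abs); norm. to no-virus vs infected.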

[4] = qHTS of pediatric cancer cell lines to identify multiple opportunities for drug repurposing: Primary screen for MG 63 (6-TG R) cells (AID 1347105); conditions: MG 63 (6-TG R) viability, CellTiter-Glo, 48 h; activity change, negative = cytotoxic: at 46 µM (top of the series); also: potency is read from the fitted curve at half-maximal effect; nearly all actives have a fitted effect of over 50% in size
How it was run: as §1

[5] = qHTS of pediatric cancer cell lines to identify multiple opportunities for drug repurposing: Primary screen for control Hh wild type fibroblast cells (AID 1347106); also: potency is read from the fitted curve at half-maximal effect; nearly all actives have a fitted effect of over 55% in size
How it was run: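 Viability after 48 h compound treatment at 37C, 500-1,000 cells/well, read as ATP luminescence with CellTiter-Glo. Primary screens used 11-point (MIPE, 0.78 nM-46 µM) or 8-point (NPC, 0.59 nM-46 µM) final concentrations; follow-up screens used 11-point dilutions.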

[6] = qHTS of pediatric cancer cell lines to identify multiple opportunities for drug repurposing: Confirmatory screen for A673 cells (AID 1347110);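 also: cells exposed to compound for 48 h before the viability read; plate controls were DMSO neutral control for no effect and bortezomib positive control for full effect; nearly all actives have a fitted effect of over 65% in size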
How it was run: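 Cells plated at 500-1,000/well were treated five hours later with multi-point dilutions up to 46 µM final. After two days, CellTiter-Glo was added and luminescence read.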

[7] = qHTS of pediatric cancer cell lines to identify multiple opportunities for drug repurposing: Confirmatory screen for LAN-5 cells (AID 1347113); also: potency is read from the fitted curve at half-maximal effect; nearly all actives have a fitted effect of over 65% in size
How it was run: (§2)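 Cells (500-1,000/well) rested 5 h, then received compounds for 48 h; metabolically active cells were measured by CellTiter-Glo luminescence. Final concentrations spanned up to 46 µM (MIPE, 11-point) or 0.59 nM-46 µM (NPC, 8-point) in primary screens, 11-point in follow-ups.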

[8] = qHTS of pediatric cancer cell lines to identify multiple opportunities for drug repurposing: Confirmatory screen for DAOY cells (AID 1347114); also: potency is read from the fitted curve at half-maximal effect; nearly all actives have a fitted effect of over 65% in size
How it was run: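 Viability measured as metabolically active cells via CellTiter-Glo luminescence following 48 hours of compound exposure, 11-point dilutions in confirmatory testing. 500-1,000 cells/well plated 5 hours before dosing; controls were DMSO and 2.3 µM bortezomib.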

[9] = qHTS of pediatric cancer cell lines to identify multiple opportunities for drug repurposing: Confirmatory screen for MG 63 (6-TG R) cells (AID 1347119);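 also: plate controls were DMSO neutral control for no effect and bortezomib for full effect; nearly all actives have a fitted effect of over 55% in size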
How it was run: as §2

[10] = qHTS of pediatric cancer cell lines to identify multiple opportunities for drug repurposing: Confirmatory screen for RD cells (AID 1347124); conditions: RD rhabdomyosarcoma cell viability; activity change, negative = cytotoxic: at 45.9 µM (top of the series);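 also: potency is read from the fitted curve at half-maximal effect; cells exposed to compound for 48 h before viability readout; nearly all actives have a fitted effect of over 65% in size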
How it was run: as §2

[11] = Quantitative High-Throughput drug screen in 47 multiple myeloma cell lines against the NCATS MIPE library collection: EJM_DSMZ cell viability assay (AID 1918926; also: potency is read from the fitted curve at half-maximal effect; nearly all actives have a fitted effect of over 30% in size)
How it was run: (§3)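 Inhibition of cell viability is measured here. Each line was plated at 500 cells per well, treated with MIPE 4.0 drugs, kept 48 hours at 37C, then assayed for ATP content by CellTiter-Glo luminescence.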

[12] = Quantitative High-Throughput drug screen in 47 multiple myeloma cell lines against the NCATS MIPE library collection: ARP1_JJKsccF8 cell viability assay (AID 1918928; also: potency is read from the fitted curve at half-maximal effect; nearly all actives have a fitted effect of over 40% in size)
How it was run: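 Luminescence from CellTiter-Glo, taken after 5 min at room temperature, reports cellular ATP as viability. Cells (500 per well) had been treated 48 h at 37 °C with MIPE 4.0 compounds, scaled between DMSO and medium-only controls.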

[13] = Quantitative High-Throughput drug screen in 47 multiple myeloma cell lines against the NCATS MIPE library collection: KMS20_JCRB cell viability assay (AID 1918973); conditions: CellTiter-Glo ATP, 48 h; viability (% of DMSO): at 45.8 µM (top of the series); also: potency is read from the fitted curve at half-maximal effect; nearly all actives have a fitted effect of over 45% in size
How it was run: as §3

[14] = Quantitative High-Throughput drug screen in 47 multiple myeloma cell lines against the NCATS MIPE library collection: MMM1_PLB cell viability assay (AID 1918976); also: potency is read from the fitted curve at half-maximal effect; nearly all actives have a fitted effect of over 35% in size
How it was run: (§4)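 Inhibition of viability over 48 h was scored by ATP content (CellTiter-Glo) in 500-cell wells. Zero and full viability were defined by media-only and DMSO-only wells.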

[15] = Quantitative High-Throughput drug screen in 47 multiple myeloma cell lines against the NCATS MIPE library collection: OCIMY1_PLB cell viability assay (AID 1918979); also: potency is read from the fitted curve at half-maximal effect; nearly all actives have a fitted effect of over 35% in size
How it was run: as §4

MCC-26 = assay: qHTS assay to identify novel small-molecules to repurpose for Merkel cell carcinoma treatment (AID 1296009); conditions: MCC and control cell lines, CellTiter-Glo viability, 72 h; activity change, negative = cytotoxicity: at 46 µM (top of the series); also: potency is read from the fitted curve at half-maximal effect; nearly all actives have a fitted effect of over 60% in size
How it was run: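 72 hr, 37 degree celsius; NPC 8-pt / MIPE 11-pt dose response; compound pinned in DMSO; CellTiter-Glo, 10 min RT, luminescence; normalized to no-cell and DMSO controls.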
Tags tell the direction and shape of the fitted curve.

C[C@@H]1O[C@@H](O[C@H]2[C@H](OC(=O)[C@]34CCC(C)(C)C[C@H]3C3=CCC5[C@@]6(C)C[C@@H](O)[C@@H](O)[C@@](C)(CO)C6[C@H](O)C[C@@]5(C)[C@]3(C)CC4)OC[C@H](O)[C@@H]2O)[C@H](O)[C@H](O)[C@H]1O[C@@H]1OC[C@@H](O)[C@H](O[C@H]2O[C@H](C)[C@@H](O)[C@H](O)[C@@H]2O)[C@H]1O (stereo partly drawn)
activity, negative = inhibition [1]: inactive: 4.47% [at 11.6 µM]

COc1ccc(C(=O)c2ccccc2O)c(O)c1
Potency [2]: inactive

Cc1ccc(NC(=O)C2(c3ccc4c(c3)OC(F)(F)O4)CC2)nc1-c1cccc(C(=O)O)c1
Potency [3]: active: 0.0372 µM
Potency [4]: active: 148 nM
Potency [5]: active: 11.8 µM
Potency [6]: inactive
Potency [7]: inconclusive [rising, partial curve, poor fit]
Potency [8]: inconclusive [cytotoxic, partial curve, poor fit]
Potency [9]: inactive
Potency [10]: active: 10.4 µM
Potency [11]: active: 83.3 nM
Potency [12]: active: 26.4 nM
Potency [13]: active: 83.3 nM
Potency [14]: active: 52.6 nM
Potency [15]: active: 187 nM
Potency (MCC-26): active: 833 nM

CC(=O)OC[C@H]1O[C@@H](n2ncc(=O)[nH]c2=O)[C@H](OC(C)=O)[C@@H]1OC(C)=O
Potency [3]: inconclusive [inhibitor, single point]
Potency [2]: inconclusive [cytotoxic, full curve, poor fit]
